Measurements as given in patent publication US11535838B2, “Serine protease molecules and therapies” (Research Development Foundation, priority 2012, dated 2022).

Experiments:
Assay in all cases: Cytotoxicity of GrB-Fc-IT4 constructs
Type in all cases: cell-based
SB2 = system: SB2
Text: (§1) As an initial test of this arrangement a construct was produced comprising GrB-Fc-IT4 (scFv). Specifically, the IT4 scFv targets the product of the tumor necrosis factor receptor superfamily, member 12A (TNFRSF12A) gene and was previously described in Zhou et al., 2011, which is incorporated herein by reference. The sequence of the fusion protein produced by the construct is provided as SEQ ID NO: 45. The constructs was expressed and purified as detailed supra and tested for activity against a panel of cells lines (using GrB alone a control).

SK-MEF-28 = system: SK-MEF-28
Text: as §1

H358 = system: H358
Text: as §1

MDA-MB-231 = system: MDA-MB-231
Text: as §1

AsPc-1 = system: AsPc-1
Text: as §1

H1437 = system: H1437
Text: as §1

L3.6p1 = system: L3.6p1
Text: as §1

Capan-2 = system: Capan-2
Text: as §1

H3255 = system: H3255
Text: as §1

HCC827 = system: HCC827
Text: as §1

WM35 = system: WM35
Text: as §1

MCF-7 = system: MCF-7
Text: as §1

H1975 = system: H1975
Text: as §1

WM35P2N1 = system: WM35P2N1
Text: as §1

HT-29 = system: HT-29
Text: as §1

MEF 3.5 −/− = system: MEF 3.5 −/−
Text: as §1

H520 = system: H520
Text: as §1

MDA-MD-231-Luc = system: MDA-MD-231-Luc
Text: as §1

H2073 = system: H2073
Text: as §1

A375 = system: A375
Text: as §1

MDA-MB-435 = system: MDA-MB-435
Text: as §1

HCC2279 = system: HCC2279
Text: as §1

A549 = system: A549
Text: as §1

Capan-1 = system: Capan-1
Text: as §1

B1: GrB-Fc-IT4: GrB-Fc-IT4 (scFv) fusion targeting TNFRSF12A (Fn14), SEQ ID NO: 45 (protein)
chain: [about 250 residues not shown]AAAGGGGS[human IgG1 Fc with S442P (EU numbers) not shown]GGGGSQVQLVQSGAEVKKPGASVKVSCKASGYTFTDFIIAWVKQAPGQGLEWIGEIYPGTGRTYYSEKFRGKATLTADTSTSTAYMELSSLRSEDTAVYFCARRTIYYDYDGDYWGQGTLVTVSSGSTSGSGKPGSGEGSTKGDIVMTQSPLSLPVTPGEPASISCRSSKSLLHSNGITYLYWYLQKPGQSPQLLIYQMSNLASGVPDRFSGSGSGTDFTLKISRVEAEDVGVYYCAHNLELPWTFGQGTKVEIKR
IC50 (SB2): 0.017 µM | IC50 (SK-MEF-28): > 0.284 µM | IC50 (H358): 0.121 µM | IC50 (MDA-MB-231): 0.017 µM | IC50 (AsPc-1): 0.017 µM | IC50 (H1437): 0.014 µM | IC50 (L3.6p1): 0.035 µM | IC50 (Capan-2): 0.021 µM | IC50 (H3255): 0.027 µM | IC50 (HCC827): 0.114 µM | IC50 (WM35): 0.003 µM | IC50 (MCF-7): 0.035 µM | IC50 (H1975): > 0.114 µM | IC50 (WM35P2N1): 0.144 µM | IC50 (HT-29): 0.118 µM | IC50 (MEF 3.5 −/−): > 0.114 µM | IC50 (H520): 0.062 µM | IC50 (MDA-MD-231-Luc): 0.003 µM | IC50 (H2073): > 0.114 µM | IC50 (A375): 0.073 µM | IC50 (MDA-MB-435): 0.012 µM | IC50 (HCC2279): 0.019 µM | IC50 (A549): 0.019 µM | IC50 (Capan-1): 0.037 µM
